The list shows a part of the results. The full chains were built here from the parent and the listed change. Values near 0.05 are background.

The labels stand for the following.
B1: TEV protease; numbered along this chain (parent)
chain: MGESLFKGPRDYNPISSSICHLTNESDGHTTSLYGIGFGPFIITNKHLFRRNNGTLVVQSLHGVFKVKDTTTLQQHLVDGRDMIIIRMPKDFPPFPQKLKFREPQREERICLVTTNFQTKSMSSMVSDTSCTFPSGDGIFWKHWIQTKDGQCGSPLVSTRDGFIVGIHSASNFTNTNNYFTSVPKNFMELLTNQEAQQWVSGWRLNADSVLWGGHKVFMVKPEEPFQPVKEATQL

The experiment covers variants of B1. The experiment can be described thus: raw area under fraction-flipped curve 0-4 h after induction (AUC4h, not background-subtracted), DNA-recorder readout of cleavage of the substrate (dimensionless); higher = more cleavage of the substrate by the protease variant. The conditions noted are these: temperature: 34 °C; time window: 0-4 h after rhamnose induction.
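Note: Bxb1 expression induced with 0.2% (w/v) L-rhamnose at OD600 near 0.5, cultures sampled hourly, flipped fraction per protease–substrate barcode pair counted by paired-end Illumina sequencing.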

Take MGESLFKGVRDYNPISSSICHLTNESDGHTTSLYGIGFGPFIITNKHLFRRNNGTLVVQSLHGVFKVKDTTTLQQHLVDGRDMIIIRMPKDFPPFPQKLKFREPQREERICLVTTNFQTKSMSSMVSDTSCTFPSGDGIFWKHWIQTKDGQCGSPLVSTRDGFIVGIHSASNFTNTNNYFTSVPKNFMELLTNQEAQQWVSGWRLNADSVLWGGHKVFMVKPEEPFQPVKEATQL [P9V]: the “area with substrate ENLYFQF” value came to 0.0895, the “area with substrate ENLYFQG” value is 0.0958, the “area with substrate ENLYFQH” value came to 0.0417 and the “area with substrate ENLYFQM” value turned out to be 0.0956. The “area with substrate ENLYFQN” value came out at 0.0514, the “area with substrate ENLYFQP” value turned out to be 0.0744, the “area with substrate ENLYFQR” value was found to be 0.0617 and the “area with substrate ENLYFQS” value was 0.108. In addition, the “area with substrate ENLYFQV” value is 0.0638, the “area with substrate ENLYFQW” value was determined as 0.0709 and the “area with substrate ENLYFQY” value was determined as 0.0703.
As for MGESLFKGPRDYNPISSSICHLTNESDGHTTSLYGIGFGPFIITNKHLFRRNNGTLVVQSLHGVFKVKDTTTLQQHLVDGRDMIDIRMPKDFPPFPQKLKFREPQREERICLVTTNFQTKSMSSMVSDTSCTFPSGDGIFWKHWIQTKDGQCGSPLVSTRDGFIVGIHSASNFTNTNNYFTSVPKNFMELLTNQEAQQWVSGWRLNADSVLWGGHKVFMVKPEEPFQPVKEATQL [I85D], the “area with substrate ENLYFQG” value stood at 0.0675, the “area with substrate ENLYFQK” value was determined as 0.0321, the “area with substrate ENLYFQL” value was 0.047 and the “area with substrate ENLYFQM” value was determined as 0.0573. Also, the “area with substrate ENLYFQS” value is 0.0439, the “area with substrate ENLYFQT” value came to 0.0612, the “area with substrate ENLYFQV” value amounted to 0.0337 and the “area with substrate ENLYFQW” value was 0.0283. In addition, the “area with substrate ENLYFQY” value was 0.0349.
Take MGESLFKGPRDYNPISSSICHLTNESDGHTTSLYGIGFGPFIITNKHLFRRNNGTLVVQSLHGVFKVKDTTTLQQHLVDGRDMIIIRIPKDFPPFPQKLKFREPQREERICLVTTNFQTKSMSSMVSDTSCTFPSGDGIFWKHWIQTKDGQCGSPLVSTRDGFIVGIHSASNFTNTNNYFTSVPKNFMELLTNQEAQQWVSGWRLNADSVLWGGHKVFMVKPEEPFQPVKEATQL [M88I]: the “area with substrate ENLYFQF” value worked out at 0.0699, the “area with substrate ENLYFQI” value was determined as 0.056, the “area with substrate ENLYFQK” value was found to be 0.0346 and the “area with substrate ENLYFQL” value was determined as 0.0735. In addition, the “area with substrate ENLYFQN” value was determined as 0.085, the “area with substrate ENLYFQR” value worked out at 0.0615, the “area with substrate ENLYFQS” value is 0.0964 and the “area with substrate ENLYFQT” value came to 0.0554. The “area with substrate ENLYFQV” value was 0.0639 and the “area with substrate ENLYFQY” value is 0.0775.
Turning to MGESLFKGPRDYNPISSSICHLTNESDGHTTSLYGIGFGPFIITNKHLFRRNNGTLVVQSLHGVFKVKDTTTLQQHLVDGRDMIIIRMPKDFPPFPQKLKFREPQREERICLVTTNFQTKSMSSMVSDTSCTFPSGDGIFWKHWIQTKDGQCGSPLVSTRDGFIVGIHSASNFTNTNNYFTSVPKNFMELLTNQEAQQWVSGWRLNADSVLWGGHKVFMVKPEEPFQPVKEATHL [Q234H], the “area with substrate ENLYFQG” value came to 0.0671, the “area with substrate ENLYFQI” value came out at 0.0384, the “area with substrate ENLYFQK” value was 0.0653 and the “area with substrate ENLYFQL” value stood at 0.0555. The “area with substrate ENLYFQN” value worked out at 0.0909, the “area with substrate ENLYFQP” value was 0.0677, the “area with substrate ENLYFQR” value stood at 0.0593 and the “area with substrate ENLYFQS” value came to 0.106. Further, the “area with substrate ENLYFQT” value came to 0.0732 and the “area with substrate ENLYFQY” value stood at 0.0815.
Consider MGESLFKGPRDYNPISSSICHLTNTSDGHTTSLYGIGFGPFIITNKHLFRRNNGTLVVQSLHGVFKVKDTTTLQQHLVDGRDMIIIRMPKDFPPFPQKLKFREPQREERICLVTTNFQTKSMSSMVSDTSCTFPSGDGIFWKHWIQTKDGQCGSPLVSTRDGFIVGIHSASNFTNTNNYFTSVPKNFMELLTNQEAQQWVSGWRLNADSVLWGGHKVFMVKPEEPFQPVKEATQL [E25T], for which the “area with substrate ENLYFQG” value came to 0.0811, the “area with substrate ENLYFQH” value is 0.0813, the “area with substrate ENLYFQI” value was determined as 0.0439 and the “area with substrate ENLYFQK” value amounted to 0.061. The “area with substrate ENLYFQL” value is 0.0678, the “area with substrate ENLYFQM” value amounted to 0.0074, the “area with substrate ENLYFQN” value amounted to 0.0863 and the “area with substrate ENLYFQR” value came out at 0.0513. The “area with substrate ENLYFQS” value was 0.11, the “area with substrate ENLYFQW” value was determined as 0.0695 and the “area with substrate ENLYFQY” value came to 0.0862.
MGESLFKGPRDYNPISSSICHLTNESDGHTTSLYGIGFGPFIITNKHLFRRNNGTLVVQSLHGVFKVKDTTTLQQHLVDGRDMIIIRMPKDFPPFPQKLKFREPQREERICLVTTNFQTKSMSSMVSDTSCTFPSGDGIFWKHWIQTKDGQCGSPLVSTRDGFIVGIHSASNFTNTNNYFTSVPKNFMELLTNQEAQQWVSLWRLNADSVLWGGHKVFMVKPEEPFQPVKEATQL [G202L]: the “area with substrate ENLYFQG” value came to 0.0676, the “area with substrate ENLYFQH” value is 0.0549, the “area with substrate ENLYFQK” value turned out to be 0.0612 and the “area with substrate ENLYFQL” value worked out at 0.0665. The “area with substrate ENLYFQM” value was found to be 0.0604, the “area with substrate ENLYFQN” value worked out at 0.0451, the “area with substrate ENLYFQP” value was found to be 0.0585 and the “area with substrate ENLYFQR” value is 0.0622. The “area with substrate ENLYFQS” value came out at 0.0642, the “area with substrate ENLYFQW” value worked out at 0.0501 and the “area with substrate ENLYFQY” value came to 0.0511.
Turning to MGESLFKGPRDYNPISSSICHLTNESDGHTTSLYGIGFGPFIITNKHLFRRNNGTLVVQSLHGVFKVKDTTTLQQHLVDGRDMIIIRMPKDFPPFPQKLKFREPQREERICLVTTNFQTKSMSSMVSDTSSTFPSGDGIFWKHWIQTKDGQCGSPLVSTRDGFIVGIHSASNFTNTNNYFTSVPKNFMELLTNQEAQQWVSGWRLNADSVLWGGHKVFMVKPEEPFQPVKEATQL [C131S], the “area with substrate ENLYFQG” value came out at 0.122, the “area with substrate ENLYFQH” value is 0.0978, the “area with substrate ENLYFQI” value came to 0.0659 and the “area with substrate ENLYFQK” value was 0.039. The “area with substrate ENLYFQM” value was found to be 0.0862, the “area with substrate ENLYFQS” value came to 0.115 and the “area with substrate ENLYFQT” value turned out to be 0.0602.
Consider MGESLFKGPRDYNPISSSICHLTNESDGHTTSLYGIGFGPFIITNKHLFRRNNGTLVVQSLHGVFKVKDTTTLQQHLVDGRDMIIIRMPKDFPPFPQKLKFREPQREERICLVTTNFQTKSMSSMVSDTSCTFPSGDGIFWKLWIQTKDGQCGSPLVSTRDGFIVGIHSASNFTNTNNYFTSVPKNFMELLTNQEAQQWVSGWRLNADSVLWGGHKVFMVKPEEPFQPVKEATQL [H143L], for which the “area with substrate ENLYFQG” value is 0.0617, the “area with substrate ENLYFQI” value came to 0.0533, the “area with substrate ENLYFQK” value turned out to be 0.0608 and the “area with substrate ENLYFQL” value came to 0.0514. Also, the “area with substrate ENLYFQM” value is 0.0485, the “area with substrate ENLYFQN” value is 0.0561, the “area with substrate ENLYFQP” value worked out at 0.0433 and the “area with substrate ENLYFQQ” value turned out to be 0.0602. Also, the “area with substrate ENLYFQR” value was 0.0524, the “area with substrate ENLYFQS” value turned out to be 0.062, the “area with substrate ENLYFQW” value turned out to be 0.0446 and the “area with substrate ENLYFQY” value is 0.0662.
As for MGESLFKGPRDYNPISSSICHLTNESDGHTTSLYGIGFGPFIITNKHLFRRNNGTLVVQSLHGVFKVKDTTTLQQHLVDGRDMIIIRMPKDFPPFPQKLKFREPQREERICLVTTNFQHKSMSSMVSDTSCTFPSGDGIFWKHWIQTKDGQCGSPLVSTRDGFIVGIHSASNFTNTNNYFTSVPKNFMELLTNQEAQQWVSGWRLNADSVLWGGHKVFMVKPEEPFQPVKEATQL [T119H], the “area with substrate ENLYFQG” value came to 0.113, the “area with substrate ENLYFQN” value is 0.102, the “area with substrate ENLYFQP” value came to 0.0509 and the “area with substrate ENLYFQR” value came to 0.082. Moreover, the “area with substrate ENLYFQS” value is 0.108, the “area with substrate ENLYFQT” value is 0.0622 and the “area with substrate ENLYFQW” value is 0.0686.
For the variant MGESLFKGPRDYNPISSSICHLTNESDGHTTSLYGIGFGPFIITNKHLFRRNNGTLVVQSLHGVFKVKDTTTLQQHLVDGRDMIIIRMPKDFPPFPQKLKFREPQREERICLVTTNFQTKSMSSMVSDTSCTFPSGDGIFWKHWIQTKDGQCGGPLVSTRDGFIVGIHSASNFTNTNNYFTSVPKNFMELLTNQEAQQWVSGWRLNADSVLWGGHKVFMVKPEEPFQPVKEATQL [S154G], the “area with substrate ENLYFQG” value came out at 0.0873, the “area with substrate ENLYFQI” value came to 0.0571, the “area with substrate ENLYFQK” value worked out at 0.0619 and the “area with substrate ENLYFQL” value was determined as 0.0493. Further, the “area with substrate ENLYFQM” value came out at 0.0671, the “area with substrate ENLYFQN” value worked out at 0.0692, the “area with substrate ENLYFQR” value worked out at 0.0604 and the “area with substrate ENLYFQS” value is 0.0912. In addition, the “area with substrate ENLYFQT” value came out at 0.0614, the “area with substrate ENLYFQV” value was 0.049 and the “area with substrate ENLYFQW” value was determined as 0.0729.

For the origin of these results see the supplement of paper PMC12217912.
